Results: the supplement of paper PMC4166925
± gives the standard deviation of the averaged measurements. Over roughly 33,000 sequences, “E-score (dimensionless, -0.5 to 0.5)” has its median near -0.049; the highest 2% begin near 0.37. Some of the results follow.

Test system: T1, PmTbr T-box DNA-binding domain (GST fusion)
T1 sequence: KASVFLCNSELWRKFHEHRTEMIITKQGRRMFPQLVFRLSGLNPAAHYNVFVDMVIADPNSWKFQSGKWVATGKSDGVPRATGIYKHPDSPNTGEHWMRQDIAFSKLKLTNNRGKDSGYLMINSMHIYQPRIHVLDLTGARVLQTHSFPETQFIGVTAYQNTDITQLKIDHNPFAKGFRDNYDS
Experiment: PBM E-score of 8-mer (E-score (dimensionless, -0.5 to 0.5)); Tbr is Tbrain of the sea star Patiria miniata (Pm) or the sea urchin Strongylocentrotus purpuratus (Sp); higher = stronger binding preference; most listed sequences are background and not binding sites
Conditions: the construct has about 5 more residues each side
Procedure, shortened: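 Each ungapped 8-mer received an enrichment E-score from the Universal PBM Analysis Suite, averaged over duplicate arrays. The proteins were Tbr T-box DNA-binding domains, covering the whole T-box plus about five flanking residues, fused to GST and expressed in BL21 E. coli at 20 °C before glutathione affinity purification. Universal Agilent oligonucleotide arrays were made double-stranded by primer extension and incubated with 200 nM protein in PBS (pH 7.5). The arrays were then scanned and quantified, and every 8-mer was scored from probe intensities.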

Sequence	PBM E-score of 8-mer
GAAAGCGA	0.0498 ± 0.021
AACTGCTA	0.172 ± 0.069
GATCTAGA	-0.0675 ± 0.032
ACATCCAT	0.0578 ± 0.00084
AACTAAGA	-0.0524 ± 0.013
AGCCTCTG	-0.136 ± 0.042
CCCAAAGA	-0.203 ± 0.003
CAGGTGTC	0.4791 ± 0.0044
CGCCAAAC	0.222 ± 0.027
GAACCTAA	-0.243 ± 0.1
GGAGGGAA	-0.244 ± 0.035
CAGACAGG	-0.114 ± 0.043
CCTATACC	-0.274 ± 0.026
AGATTGGA	-0.0814 ± 0.028
GGCGATCA	-0.0128 ± 0.04
GAAGATGC	-0.163 ± 0.0058
AATACAAA	-0.159 ± 0.014
ACGCGGTG	0.208 ± 0.043
AAGGGCTG	-0.207 ± 0.014
CCGATATC	0.116 ± 0.028
AATTGCCA	0.176 ± 0.021
ATTGTCCG	-0.19 ± 0.031
CCATAGCG	0.032 ± 0.0043
CGCATCGA	0.0587 ± 0.0012
TATCACCA	0.269 ± 0.022

Sequence	PBM E-score of 8-mer
AGCCAGCT	-0.0543 ± 0.14
GGTACAAA	-0.0717 ± 0.0055
CTCGATGA	-0.115 ± 0.021
TAAAGCAA	-0.288 ± 0.019
CATTGCAA	-0.162 ± 0.048
CTCGCCCA	-0.0934 ± 0.15
AGGACGAA	-0.207 ± 0.043
AATGCCGT	-0.148 ± 0.026
CGCAGTAG	-0.134 ± 0.0021
CATGAGCC	-0.154 ± 0.071
AATCACTA	-0.0999 ± 0.0071
ATTGGGGA	-0.197 ± 0.0079
TGCAGCCA	0.00329 ± 0.0089
AGCCTTCA	-0.219 ± 0.055
CTAGTGAC	0.26 ± 0.027
GCTTAACC	0.0352 ± 0.043
AACCACTA	0.0474 ± 0.023
GAGTAAGA	-0.149 ± 0.095
GGACGGGA	-0.179 ± 0.0074
GTTCCTGA	0.0418 ± 0.022
AGTGACGC	0.3 ± 0.05
AATATGAT	-0.165 ± 0.057
CGCTTTTA	-0.114 ± 0.1
ATCACGGC	0.0908 ± 0.0041
AGTGCAGC	-0.0478 ± 0.021

Sequence	PBM E-score of 8-mer
ACGATCGA	-0.0138 ± 0.025
CTAGAGGC	-0.143 ± 0.012
CCGTCTCG	-0.0597 ± 0.066
GTGCCGGA	0.119 ± 0.052
CTGTCGGA	0.101 ± 0.044
GGCATAAC	-0.0559 ± 0.021
AACATGGG	-0.0997 ± 0.059
AGATGCTA	0.0692 ± 0.038
ACACGTGG	0.307 ± 0.022
AAATGCAT	-0.134 ± 0.011
ATGACAGG	-0.00481 ± 0.016
ACAAGTCA	0.108 ± 0.036
AGCAAGGC	-0.0115 ± 0.038
CCAATCGC	0.119 ± 0.036
TCCAGCCA	-0.0544 ± 0.058
ACCCTTGG	0.0547 ± 0.038
TACAGTGA	0.133 ± 0.051
TGCAGGCA	-0.0674 ± 0.13
AACTTGCT	-0.046 ± 0.09
TATTCCGA	-0.274 ± 0.013
CGCATAAC	0.0175 ± 0.069
ATTACGTC	-0.181 ± 0.016
TACTGCAA	0.0487 ± 0.026
ACCTGGAG	0.0832 ± 0.12
GCTCGACA	0.198 ± 0.029

Sequence	PBM E-score of 8-mer
CAGGCCTC	-0.19 ± 0.003
CGAAACAC	0.296 ± 0.011
GACTTCCC	-0.0361 ± 0.067
AACAAGGC	0.118 ± 0.11
CACGATTC	0.189 ± 0.0081
CACGTCAG	0.244 ± 0.011
ATAACTAA	-0.022 ± 0.026
ATGTTTAC	-0.0873 ± 0.024
CGTAGGAG	-0.0595 ± 0.057
ACTGGTCC	-0.4 ± 0.044
TCCATCAA	0.0136 ± 0.076
GGAGGTGA	0.4036 ± 0.0026
AAACCTTG	-0.132 ± 0.0072
GGCTGCAC	0.111 ± 0.035
GGCATTAA	-0.146 ± 0.0047
GATGCTTA	-0.19 ± 0.024
AGTCAACC	-0.007 ± 0.035
GCGCAGAA	-0.0316 ± 0.067
AAGTATCT	-0.264 ± 0.021
CGCTCAAC	-0.116 ± 0.022
AGCAGGAT	-0.147 ± 0.033
ACCCCCGC	-0.113 ± 0.093
ACATTCGA	-0.164 ± 0.02
ATAATAAT	-0.24 ± 0.091
GTTGGGAA	0.011 ± 0.035

Sequence	PBM E-score of 8-mer
GAACAGAC	-0.101 ± 0.044
GGGATATA	-0.124 ± 0.0044
AGCCGGGC	-0.205 ± 0.045
GAGCAGGC	-0.108 ± 0.058
ATCATAAG	0.00266 ± 0.074
TAGGCCAA	-0.298 ± 0.065
AGCCCCGA	-0.174 ± 0.041
ATTCGATC	-0.214 ± 0.0051
GTGGGTAA	-0.00386 ± 0.027
GACAGGCA	-0.0532 ± 0.041
ACTGAAGT	-0.11 ± 0.0012
AAAGTATT	-0.0791 ± 0.099
CGGTGTAA	0.131 ± 0.037
CACGCGCC	0.228 ± 0.024
GGTATAGA	-0.262 ± 0.027
TTATGGAA	-0.0117 ± 0.0076
GTCAGAGA	-0.0902 ± 0.085
ATGCAAAC	-0.106 ± 0.061
ATTGACGA	0.0689 ± 0.061
CAGCCTGA	-0.112 ± 0.04
CCCATAAA	-0.107 ± 0.0037
ACTTTTAC	-0.0251 ± 0.02
ACAGGAGT	0.016 ± 0.00085
AGCACGGC	0.0625 ± 0.026
ACTTAGAA	-0.0174 ± 0.056

Sequence	PBM E-score of 8-mer
GAGTCCCC	-0.222 ± 0.01
ATCCAATC	-0.137 ± 0.054
TACGCTGA	-0.202 ± 0.051
AGAAATAA	0.0198 ± 0.018
AATGGTGA	0.11 ± 0.02
GCCATAGA	-0.0661 ± 0.067
CGGGCTGA	-0.115 ± 0.075
AGACTTAA	-0.105 ± 0.0092
AATCTTAA	-0.162 ± 0.061
CGGCGAAA	-0.1403 ± 0.00085
CGCCTGTA	0.101 ± 0.06
ATCCGGAG	-0.126 ± 0.02
AAACAATG	0.0542 ± 0.0052
AATAAATG	-0.177 ± 0.031
AGAAGTCG	0.113 ± 0.02
CATGTCTA	0.0713 ± 0.011
GTGGGCTA	-0.206 ± 0.087
CCCACCGG	-0.143 ± 0.047
GTGGATGA	-0.174 ± 0.05
ACATGCAT	-0.0914 ± 0.013
AAGCCGTC	0.0552 ± 0.029
GAACCTGC	-0.162 ± 0.0065
AGATTTAC	-0.0888 ± 0.039
ACTGTCAT	0.163 ± 0.037
AAGAACAA	-0.22 ± 0.012

Sequence	PBM E-score of 8-mer
AAACAGGC	-0.177 ± 0.0041
GGAGAGAA	0.0991 ± 0.033
ATGGTACC	-0.0911 ± 0.059
TGCACACA	0.093 ± 0.022
CTTCGATC	-0.112 ± 0.023
CACAACGG	0.219 ± 0.045
CATGGCCG	-0.242 ± 0.11
GATCCGTA	-0.00694 ± 0.091
CCTTGAGC	-0.11 ± 0.019
ATGGAAGG	-0.139 ± 0.044
CAAGAATA	-0.222 ± 0.0028
ATCTACGC	0.0498 ± 0.0073
TAAAAGAA	-0.0479 ± 0.0075
TGGTAGAA	-0.00365 ± 0.062
CCCTACCG	-0.151 ± 0.071
CATACTGC	-0.0383 ± 0.049
CAGGCGGG	-0.0145 ± 0.026
AACAGTCA	0.0868 ± 0.012
ACAGTCAT	-0.0227 ± 0.012
ACCGCTCC	-0.244 ± 0.031
AGTGGCAC	0.334 ± 0.008
CGGTAACC	-0.143 ± 0.04
